From the supplement of paper PMC11417369
The other results are listed elsewhere or left out.

Test system: PfSIP2 AP2 domain 1 (GST-tagged)
Experiment: gcPBM binding intensity (ln(normalized median fluorescence intensity)); higher = stronger DNA binding
Outline: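 Using an Agilent 4 × 180k array, primer-extended double-stranded 36-bp intergenic genomic probes and negative controls were exposed for 1 h to GST-fused P. falciparum DNA-binding domains expressed in E. coli. Binding was carried out in 1× PBS with 1% milk, 0.2 mg/ml BSA, 0.5% salmon testes DNA and 0.03% Triton X-100, and protein was detected with Alexa488 anti-GST antibody and a 488 nm scan. Binding intensity is the highest Masliner-normalised natural-log median intensity across replicate spots of either probe orientation.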

Sequence | gcPBM binding intensity (ln)
AAAAGAAAAAAAAGTACACACATGTATATTAAGCGT [CACACA_site5402] | 7.19
TTTTTTTTTCCCCCATGTACATAAATAAGTATATCT [XGTACX_site6965] | 8.17
GCGTGCGTGTACTTAACACACATAATATGTATTTAT [CACACA_site1247] | 7.08
TATATATATAAATACAGTACATATATAATATTTTGA [XGTACX_site637] | 7.81
AAAAATATATATATATATATATATATATTATTTTTT [TGCATGCA_negctrl_site378] | 7.6
TAACTTAATTTTAATGCACACAATTTATATATATAT [CACACA_site6022] | 9.24
AATTATATGAAATAAACACACATATGCAATATTGCA [CACACA_site6988] | 6.98
ATATGTACTATACGCACACACACTCACATATATATA [CACACA_site3239] | 7.51
ATTATATATATCAGGTGTACGTAAAAAAAATGGACG [XGTACX_site1028] | 7.99
GAGGTCTTTTTTAATGTGCACATATATATATATATA | 9.79
TTTTTTTATTAATGTAGTACAATATAATGTTATATT [XGTACX_site2295] | 7.18
TTTTTTTTTTTTTTTACACACTCCAATAAAAAAGAA [CACACA_site2119] | 7.2
TATAAAAATATATTTACACACTATAAATATCGAAAG [CACACA_site6896] | 6.97
TAATTTATAAATATAATATTTATGTATATGATGTTT [CACACA_negctrl_site464] | 6.99
TACAACTTAATATGTACACACAAATATATATATATA [CACACA_site5138] | 9.36
GAAATACATTTTAAAAAATAAGTAATTATAAAATAA [TGCATGCA_negctrl_site303] | 6.77
ATTCATCCAATAATGTGAATTATCATGATAAACTTA [TGCATGCA_negctrl_site406] | 6.62
TTTATAAATAAACACACACACATGTGAACATAAAAA [CACACA_site5110] | 7.02
GATACCTATAGACACACACACATACCTATATACATA [CACACA_site7586] | 7.34
ATCAAAATTGTCATTACACACCTTTATTTTTAGAAT [CACACA_site1813] | 6.94
ATATATGTAAATGAATGTACATTATTTTATATATTA [XGTACX_site8460] | 7.01
ATTATTCTATATGAAACATGCATACATTTGTATTTT [TGCATGCA_site823] | 7.12
TCCAATAATTTATAAAAAAAAAAAGGGAAAATGTAT [TGCATGCA_negctrl_site492] | 6.8

Sequence | gcPBM binding intensity (ln)
TTGGATTTTTCCTATGAACACACGGGGTTACAATTA [CACACA_site449] | 6.73
TTAATATGAGAATAATGTACAAGAAAATATTACATA [XGTACX_site6609] | 6.87
ATATATTTATTATTAACATGCAATCATTATATATAA [TGCATGCA_site404] | 6.88
AAAATAATAAAAAACTGTACGAATTAAAAATTAACA [XGTACX_site8454] | 7.03
ATAGATAAATTTACGGGTACTAAAATGGAATATGAA [XGTACX_site8637] | 7.35
TATTTTACAATAACAATACACACTATAATATATATA [CACACA_site1391] | 7.57
TGTGTTCAGTATTGCACACACACAACCAAATAAAAA [CACACA_site379] | 7.22
ATTCACATATTATCTTTACACACTATATATAAGTTT [CACACA_site8901] | 7.32
CATCAAAATGCTACATGTACATATATATAATATATT [XGTACX_site5207] | 7.28
AATATATATAAATAAACACACACAAATATAATAAAA [CACACA_site9176] | 7.04
GAAATGAACAAGTGGGTGCGTATTAATTACATATTA | 9.77
TTTTTAATTTTTTTTAAACACACACCGTACATTCAA [CACACA_site7925] | 7.29
TATATACTTTATAAATGTACATATAATGTATTATTT [XGTACX_site7313] | 6.98
TATATATATACATATTGTACATATTACATGCTATTA [XGTACX_site1184] | 8.16
CATTTTCATTTTAAGGTGCATTAATATTTATTTTAA [GTGCAC_site9437] | 10.4
TCATTTTAAATATGTGTGCACGTTATAATTTACACA | 9.54
CAAATTGGGAAATTTTGTACATATAATAAGGATACC [XGTACX_site7728] | 7.28
GATAATGAATGATGCACACTAAAAATATTCTACAAC [CACACA_site3622] | 7.64
CCGTATATTTTATATAGTACTCATCATATATTTTTA [XGTACX_site5560] | 6.96
AAACTCTCTTATATTAAACACACATATATATATGTA [CACACA_site8865] | 7.01
AAACAAAAGATATATACACACTAAACATAAAAAAAA [CACACA_site6161] | 6.84
AAAAACTTTTCAAGTAGTACCATATCTACAATAGTA [XGTACX_site8927] | 6.83
